The list shows a part of the results, in another mix than the full data. For some assays here: At the low end of the ranking the order means little. Some of the results follow. For some assays here: The exact form of the protein is not confirmed.
Tests used:
Assay in all cases: universal protein binding microarray (PBM)
Conditions in all cases: transcription factors of Arabidopsis thaliana; high values mean tight binding; most listed sequences are background and not binding sites; double strand, one strand shown
GST-ANAC092(1-176) = target: T1, GST-ANAC092(1-176) (UniProt Q9FKA0)
T1 sequence: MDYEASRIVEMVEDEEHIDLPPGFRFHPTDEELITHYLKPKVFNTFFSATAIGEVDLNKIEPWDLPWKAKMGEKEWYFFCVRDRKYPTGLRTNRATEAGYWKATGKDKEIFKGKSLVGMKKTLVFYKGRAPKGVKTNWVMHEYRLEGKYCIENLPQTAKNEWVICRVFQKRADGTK

GST-NTL6(1-168) = GST-NTL6(1-168) (UniProt Q9SCK6)
GST-ATAF1 NAC domain = target: T2, GST-ATAF1 NAC domain (UniProt Q39013)
T2 sequence: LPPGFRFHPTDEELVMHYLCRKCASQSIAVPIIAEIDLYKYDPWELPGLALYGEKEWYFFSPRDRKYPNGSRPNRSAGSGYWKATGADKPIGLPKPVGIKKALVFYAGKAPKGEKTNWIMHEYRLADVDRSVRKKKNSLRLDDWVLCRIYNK

GST-NAP(1-166) = target: T3, GST-NAP(1-166) (UniProt O49255)
T3 sequence: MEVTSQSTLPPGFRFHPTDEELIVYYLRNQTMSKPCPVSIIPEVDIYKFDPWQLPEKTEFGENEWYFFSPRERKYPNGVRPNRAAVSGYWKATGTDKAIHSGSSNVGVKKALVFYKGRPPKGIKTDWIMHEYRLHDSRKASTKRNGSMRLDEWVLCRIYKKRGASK

GST-NTL8 NAC domain = target: T4, GST-NTL8 NAC domain (UniProt Q9XIN7)
T4 sequence: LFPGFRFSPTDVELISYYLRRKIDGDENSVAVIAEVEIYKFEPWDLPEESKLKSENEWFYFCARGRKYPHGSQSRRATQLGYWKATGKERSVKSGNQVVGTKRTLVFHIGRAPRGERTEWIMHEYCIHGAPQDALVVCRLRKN

GST-SND1(1-203) = target: T5, GST-SND1(1-203) (UniProt Q9LPI7)
T5 sequence: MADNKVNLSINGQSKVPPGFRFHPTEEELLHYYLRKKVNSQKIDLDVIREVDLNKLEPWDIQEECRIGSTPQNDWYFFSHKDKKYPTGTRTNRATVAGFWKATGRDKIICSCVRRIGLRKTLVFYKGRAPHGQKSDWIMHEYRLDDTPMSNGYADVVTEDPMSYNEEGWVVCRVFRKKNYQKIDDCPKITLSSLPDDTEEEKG

GST-VND3 NAC domain = target: T6, GST-VND3 NAC domain (UniProt Q9FH59)
T6 sequence: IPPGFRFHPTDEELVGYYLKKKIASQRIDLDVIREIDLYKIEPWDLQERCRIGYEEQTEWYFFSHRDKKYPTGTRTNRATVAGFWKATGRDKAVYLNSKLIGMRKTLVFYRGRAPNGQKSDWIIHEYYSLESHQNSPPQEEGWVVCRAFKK

GST-VND7 NAC domain = target: T7, GST-VND7 NAC domain (UniProt Q9C8W9)
T7 sequence: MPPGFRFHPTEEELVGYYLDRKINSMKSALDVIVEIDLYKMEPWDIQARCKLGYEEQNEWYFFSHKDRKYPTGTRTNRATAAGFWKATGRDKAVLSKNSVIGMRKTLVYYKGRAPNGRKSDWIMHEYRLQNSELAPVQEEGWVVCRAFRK

[1] = target: T8, GST-VOZ2 (Arabidopsis thaliana) (UniProt Q9SLB9)
T8 sequence: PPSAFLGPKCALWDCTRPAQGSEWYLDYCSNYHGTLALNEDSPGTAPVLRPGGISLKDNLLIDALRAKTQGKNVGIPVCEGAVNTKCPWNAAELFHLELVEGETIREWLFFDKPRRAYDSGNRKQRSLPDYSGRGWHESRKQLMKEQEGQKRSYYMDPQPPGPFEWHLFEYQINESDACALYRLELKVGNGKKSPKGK

GST-WRKY1(266-371) = GST-WRKY1(266-371) (UniProt Q9SI37)
GST-ANAC019 NAC domain = target: T9, GST-ANAC019 NAC domain (UniProt Q9C932)
T9 sequence: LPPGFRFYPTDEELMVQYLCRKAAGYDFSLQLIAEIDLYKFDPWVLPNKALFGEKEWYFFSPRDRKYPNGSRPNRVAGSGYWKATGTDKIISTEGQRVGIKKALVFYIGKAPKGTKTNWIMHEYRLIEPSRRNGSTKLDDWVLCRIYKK

GST-ANAC055(1-171) = target: T10, GST-ANAC055(1-171) (UniProt Q9LDY8)
T10 sequence: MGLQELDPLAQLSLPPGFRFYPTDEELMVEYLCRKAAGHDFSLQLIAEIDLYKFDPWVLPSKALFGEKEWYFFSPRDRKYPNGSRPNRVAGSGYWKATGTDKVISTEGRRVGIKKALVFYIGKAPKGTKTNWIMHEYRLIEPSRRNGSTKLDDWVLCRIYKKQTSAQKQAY

[2] = target: T11, GST-ANAC092(1-285) full length (UniProt Q9FKA0)
T11 sequence: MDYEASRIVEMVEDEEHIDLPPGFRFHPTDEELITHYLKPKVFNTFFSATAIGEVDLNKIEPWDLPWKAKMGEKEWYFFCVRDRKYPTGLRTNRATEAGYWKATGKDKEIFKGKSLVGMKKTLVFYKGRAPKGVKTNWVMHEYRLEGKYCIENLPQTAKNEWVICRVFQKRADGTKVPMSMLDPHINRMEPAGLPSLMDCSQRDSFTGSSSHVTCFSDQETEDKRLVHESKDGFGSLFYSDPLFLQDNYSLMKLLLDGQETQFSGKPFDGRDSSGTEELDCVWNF

GST-NST2(1-184) = target: T12, GST-NST2(1-184) (UniProt Q9M274)
T12 sequence: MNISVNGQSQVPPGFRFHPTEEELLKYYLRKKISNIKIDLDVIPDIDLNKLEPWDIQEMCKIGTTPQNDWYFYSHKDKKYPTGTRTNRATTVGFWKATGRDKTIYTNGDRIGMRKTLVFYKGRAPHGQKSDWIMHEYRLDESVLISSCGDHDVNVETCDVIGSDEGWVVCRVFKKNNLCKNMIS

Sequence	binding signal (GST-ANAC092(1-176)) [E-score]	binding signal (GST-NTL6(1-168)) [E-score]	binding signal (GST-ATAF1 NAC domain) [E-score]	binding signal (GST-NAP(1-166)) [E-score]	binding signal (GST-NTL8 NAC domain) [E-score]	binding signal (GST-SND1(1-203)) [E-score]	binding signal (GST-VND3 NAC domain) [E-score]	binding signal (GST-VND7 NAC domain) [E-score]	binding signal [1] [E-score]	binding signal (GST-WRKY1(266-371)) [E-score]	binding signal (GST-ANAC019 NAC domain) [E-score]	binding signal (GST-ANAC055(1-171)) [E-score]	binding signal [2] [E-score]	binding signal (GST-NST2(1-184)) [E-score]
GCCGTGTA	0.341	-0.11	0.314	0.235	-0.128	0.0913	0.347	0.351	-0.17	-0.12				
AGTCAAGA	0.0103		-0.0459	-0.0346	0.0301	-0.084	0.0163	-0.0386	-0.0948	0.471	0.00317	-0.0859	-0.00022	0.00773
CCTTTCCC		0.11	-0.185	-0.0602		-0.00651	-0.0732	-0.148	-0.0308	-0.159		-0.147	-0.151	-0.137
TGACTAAA	0.0255	0.0547	0.00799	-0.0767	-0.0621	-0.0391	0.0682	0.0902	0.00633	0.42		0.033	0.0456	
GGGTCAAA		-0.0453	-0.0413	-0.163	0.00301	0.0079	-0.0717	-0.134	-0.0201	0.48	-0.0521	-0.00511	0.00507	
CGTAGTCA	-0.122	-0.163		0.0254	-0.0624	0.161	0.0459	-0.00583	0.0627	0.405		0.000865	0.00502	-0.0564
ACGTCTCT	0.0939	0.018		0.381	0.0152	0.0793	0.418	0.442	-0.0847	-0.0299				
GGAGGAAA		0.146	-0.0282	0.0241		0.031	-0.0652	-0.103	-0.0711	-0.203	-0.0683	-0.0697	0.0249	0.0324
GTCAAAAA		-0.011		-0.0635		0.216	0.0339	0.0546	0.168	0.442		0.0493		0.121
AGGTTACC		-0.0131	-0.00453	0.041	0.437	-0.13	-0.102	-0.0945	-0.0749	-0.169		0.0441		-0.0964
AGGTTTCC	-0.0192		-0.0104	-0.0194	0.457	-0.0729	0.0315	-0.0642	-0.0912	-0.143	0.0846	0.034	0.0149	
TGACCTAA	0.0134		0.0102	-0.105	0.032	-0.0828	-0.0287	-0.124	-0.0148	0.419	-0.0367	-0.0308	-0.0286	-0.0243
CTATTGAC	-0.0967				-0.0591	0.0254	0.06	0.0402	0.00968	0.451	-0.0585		0.0456	0.00979
AGTCCACG		-0.0584	-0.0088	0.0231	-0.0457	-0.106	-0.0447	-0.0358	-0.107	0.438	0.0759	-0.0449	-0.0185	-0.0425
TACACGCA	0.467				0.0162	0.385	0.404	0.385	0.213	0.00482		0.382		

Source: PMC4081100
